Results published in PubChem BioAssay AID1347071 (National Center for Advancing Translational Sciences (NCATS), 2019).
About 260 (0.063%) of roughly 410,000 compounds were called active. Inconclusive means that the source gave no clear call. Such entries were picked first, then a sample of the others. Calls follow the shape of the dose curve; as a rule, active = well fitted activation curve with a large enough effect; inconclusive = small, poorly fitted or top-dose-only effect; inactive = no such curve, though single readings can be large or run the other way. Potencies of inconclusive entries are left out as doubtful fits.

assay: qHTS for compounds that reverse cellular toxicity of Amyloid beta (A-beta) peptide in yeast: Primary Screen; conditions: yeast expressing A-beta42, growth rescue, OD600, 48 h; growth rescue: at 46.1 µM (top of the series), 0% DMSO, 100% iron-clioquinol control; also: nearly all actives have a fitted effect of over 55% in size
Outline: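 Yeast growth medium received pinned compounds, then yeast cells expressing toxic A-beta were added; plates incubated at 30 C for 48 hr. Growth read as absorbance at 600 nm, normalized to DMSO and equimolar FeCl3 plus clioquinol controls.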
Potency is read from the fitted curve at half-maximal effect; tags tell the direction and shape of the fitted curve.

Compound | growth rescue | Potency
CCOC(=O)c1c(C)[nH]c(C)c1C(=O)CSc1nc2ccccc2c(=O)n1-c1ccccc1C | inactive: 1.42% | –
O=C(CC1(c2ccc(Cl)cc2)C2CC3CC(C2)CC1C3)NCCO (stereo not drawn) | – | inconclusive [activator, single point]
CCCCC(=O)NC(=S)NNC(=O)c1ccc(Cl)cc1Cl | – | inconclusive [activator, partial curve, poor fit]
COc1ccc(NN=Nc2ccc([N+](=O)[O-])cc2)cc1 | – | inconclusive [activator, partial curve, poor fit]
O=C(Nc1cccc(Cl)c1)c1cc(S(=O)(=O)NCCc2ccc(Cl)cc2)ccc1F | – | inconclusive [activator, partial curve]
Nc1ccc(C(=O)N/N=C/c2cn(Cc3cccc(F)c3)c3ccccc23)cc1 | – | inconclusive [activator, partial curve, poor fit]
O=C(/C=C/c1ccccc1)NC(=S)Nc1ccccc1 | – | inconclusive [activator, full curve, poor fit]
CCOC(=O)c1cc(-c2ccccc2)n(CC(=O)Nc2ccc(OC)cc2OC)c1C | inactive: -7.53% | –
N#Cc1ccc(NC2c3ccccc3CC2O)cc1 (stereo not drawn) | inactive: -4.32% | –
Cc1ccc(OCC(=O)NNC(=O)CCC(=O)NCc2ccccc2)cc1 | – | inconclusive [activator, partial curve, poor fit]
CC(=O)c1c(COC(=O)c2ccccc2)nc2ccccc2[n+]1[O-] | – | inconclusive [activator, partial curve, poor fit]
CN=C(Nc1cc(Cl)ccc1Cl)SC1CC(=O)N(c2ccc(C(=O)OC)cc2)C1=O (stereo not drawn) | – | inconclusive [activator, partial curve, poor fit]
NC(=O)c1ccccc1NC(=O)Cn1nc(Cc2cccnc2)c2ccccc2c1=O | inactive: -3.76% | –
Oc1ccccc1N=Nc1ccccc1O | – | inconclusive [activator, full curve, poor fit]
Cc1cc2ccccn2c1C(=S)NC(=O)c1ccccc1 | – | inconclusive [activator, full curve, poor fit]
CN(CC(=O)Nc1ccc(Cl)cc1)C(=O)c1sccc1-c1ccccc1 | – | inconclusive [activator, full curve, poor fit]
COc1ccc(CSCC(=O)N/N=C/c2ccccc2O)cc1 | – | inconclusive [activator, single point]
CCC(=O)NC(=S)Nc1c(C)cc(Br)cc1C | – | inconclusive [activator, partial curve]
O=C(NC(=S)N1CCc2ccccc21)c1ccc(Br)o1 | – | inconclusive [activator, partial curve, poor fit]
COc1ccc(Br)cc1S(=O)(=O)NCCc1cccs1 | inactive: 2.67% | –
Cc1cccc(C(=O)Nc2ccc3oc(-c4ccncc4)nc3c2)c1 | inactive: 5.45% | –
COc1ccc2c(c1)C=C(C(=O)NCc1cc(Br)ccc1OC)CO2 | – | inconclusive [activator, partial curve]
CCC(C)NC(=O)[C@H](CSCc1ccccc1)N1Cc2ccccc2C1=O (stereo partly drawn) | – | inconclusive [activator, partial curve, poor fit]

Compound | growth rescue | Potency
CCNC(=S)N1CCC(c2nc3ccccc3s2)CC1 | – | inconclusive [activator, partial curve]
Cc1cccc(C)c1OC(=O)c1ccccc1 | – | inconclusive [activator, single point]
CC12c3ccccc3C(c3ccccc31)C1C(=O)N(Cc3cccnc3)C(=O)C12 (stereo not drawn) | – | inconclusive [activator, single point]
O=C(NCc1nnc(SCc2ccc(C(F)(F)F)cc2)n1-c1ccccc1)C12CC3CC(CC(C3)C1)C2 | – | inconclusive [activator, partial curve, poor fit]
CCCCn1nnnc1C(c1ccccc1)N1CCN(c2ccc(OC)cc2)CC1 (stereo not drawn) | inactive: -23.7% | –
CCOc1ccc2oc(=O)cc(CN3CCN(c4ccccc4)CC3)c2c1 | inactive: -4.29% | –
COc1ccc(N=Nc2cc(C)c(O)c(CN3CCCCC3)c2)cc1 | – | inconclusive [activator, single point]
CCCC(=O)NC(c1ccc(Cl)cc1Cl)c1ccc2cccnc2c1O (stereo not drawn) | – | inconclusive [activator, single point]
CNc1c(NC(=O)c2ccc3c(c2)OCO3)c(=O)oc2ccccc12 | inactive: -2.81% | –
CCc1ccc(NC(=O)C2(c3ccccc3)CC2(Cl)Cl)cc1 (stereo not drawn) | – | inconclusive [activator, full curve, poor fit]
CCOC(=O)Cc1c(-c2cccc(Br)c2)nc2c3ccccc3ccn12 | inactive: -32.4% | –
COc1cc(NC(=O)CSc2cc(=O)n(C)c3ccccc23)cc(OC)c1OC | inactive: 11.8% | –
COc1ccc(NS(=O)(=O)c2ccc(NC(=O)c3ccc(N(C)S(C)(=O)=O)cc3)cc2)c(OC)c1 | inactive: -12.7% | –
CCOc1ccccc1NC(=O)C1CCCN(S(=O)(=O)c2cccs2)C1 (stereo not drawn) | inactive: -5.63% | –
CCn1cc(C(=O)N(C)c2cc(C)ccc2C)c2cc(OC)c(OC)cc2c1=O | inactive: -6.29% | –
NC(=S)N/N=C\c1ccc(-c2cccc(Cl)c2Cl)o1 | – | inconclusive [activator, partial curve, poor fit]
O=C(O)c1ccc(N/N=C/c2cccc(C(F)(F)F)c2)cc1 | inactive: -79.2% | –
O=S(=O)(c1cccs1)N1CCN(CC(O)COC2CCCc3ccccc32)CC1 (stereo not drawn) | – | inconclusive [activator, single point]
Cc1cccc(C)c1NC(=O)C(c1ccc(C(F)(F)F)cc1)n1c(=O)c(-c2cc3ccccc3[nH]2)nc2ccccc21 (stereo not drawn) | – | inconclusive [activator, partial curve, poor fit]
CCCCOc1ccccc1NC(=O)CC1Sc2ccccc2NC1=O (stereo not drawn) | inactive: -9.33% | –
CCC(CC)C(=O)N(C)c1c(C)nc2c(OCc3cccc(Cl)c3)cccn12 | – | inconclusive [activator, partial curve, poor fit]
Cc1c(Cl)cccc1NC(=S)NC1CCCC1 | – | inconclusive [activator, single point]
FC(F)(F)c1cnc(Oc2ccc(-c3nnco3)cc2)c(Cl)c1 | – | inconclusive [activator, full curve, poor fit]

Compound | growth rescue | Potency
S=c1[nH]nc(CCSCc2ccccc2)n1-c1ccccc1 | – | inconclusive [activator, single point]
Cn1nnc2cc(C(=O)N3CCN(c4ccccc4)CC3)ccc21 | – | inconclusive [activator, single point]
O=C(NC(c1ccc(Cl)cc1)c1cnccn1)C1CCN(CCCc2ccccc2)CC1 (stereo not drawn) | inactive: -19.3% | –
COc1ccc(-c2cc(C(F)(F)F)n3nc(C(=O)Nc4cc(C(F)(F)F)ccc4Cl)cc3n2)cc1OC | inactive: -7.87% | –
COc1cccc(NC(=O)CNC(=O)Cn2cnc3sc4c(c3c2=O)CCCC4)c1 | – | inconclusive [activator, single point]
Cc1ccc(C)c(CNS(=O)(=O)c2ccc3c(c2)C(C)(C)C(=O)N3C)c1 | – | inactive
O=C(c1cccc(C(F)(F)F)c1)N1CCOc2ccccc21 | inactive: 28.4% | –
COc1ccc(NS(=O)(=O)c2ccc(-c3cnc(C4CC4)o3)cc2)cc1OC | inactive: -5.75% | –
COC(=O)c1cn(CCC#N)nc1-c1ccc2ccccc2c1 | – | inconclusive [activator, partial curve, poor fit]
Cc1cccc(C)c1NC(=O)Cn1c(=O)n(Cc2ccc(C(=O)NCc3ccco3)cc2)c(=O)c2sccc21 | inactive: -11.6% | –
Cc1ccc(NC(=S)NNC(=O)c2cccc([N+](=O)[O-])c2)cc1Cl | – | inconclusive [activator, partial curve, poor fit]
CC(C)CC1NC(=O)N(CC(=O)N2CCN(S(=O)(=O)c3ccc4ccccc4c3)CC2)C1=O (stereo not drawn) | inactive: 9.11% | –
C/C(C/C(C)=C1/SC(=S)NC1=O)=C1\SC(=S)NC1=O | – | inconclusive [activator, partial curve, poor fit]
C/C(=N\NC(=O)c1cccc2ccccc12)c1ccccn1 | – | inconclusive [activator, single point]
COC(=O)c1ccccc1NC(=O)c1ccc(NS(C)(=O)=O)cc1 | – | inconclusive [activator, full curve]
Nc1cc(S(=O)(=O)Nc2ccc(Br)cc2)ccc1Cl | – | inconclusive [activator, partial curve, poor fit]
O=C(NC(=S)NCc1ccccc1)c1cccs1 | – | inconclusive [activator, partial curve]
CCOc1ccc(NC(=S)NC(C)CCc2ccccc2)cc1 (stereo not drawn) | – | inconclusive [activator, partial curve, poor fit]
CCCCCCOC1(c2ccccc2)OC(=O)c2ccccc21 (stereo not drawn) | – | inconclusive [activator, full curve, poor fit]
CCc1cc2c(=O)[nH]c(-c3ccccn3)nc2s1 | – | inconclusive [activator, single point]
O=C(c1c(Cl)cccc1Cl)N1CCN(c2cccc3[nH]ccc23)CC1 | – | inconclusive [activator, partial curve, poor fit]
Cc1ccc(C(=O)N/N=C\c2ccc(-c3ccc(Cl)c(Cl)c3)o2)cn1 | – | inconclusive [activator, single point]
